Measurements taken from PubChem BioAssay AID624296 (National Center for Advancing Translational Sciences (NCATS), 2012).
The whole screen tested about 350,000 compounds, of which about 9,900 (2.8%) were called active. The shares of active, inactive and inconclusive entries below differ from those in the screen. The call rests on the fitted dose curve; in most records, active means well fitted activation curve with a large enough effect; inconclusive means small, poorly fitted or top-dose-only effect; inactive means no such curve, though single readings can be large or run the other way. Potencies of inconclusive entries are left out as doubtful fits.

Assay: A quantitative high throughput screen for small molecules that induce DNA re-replication in MCF 10a normal breast cells. Further: nearly all actives have a fitted effect of over 50% in size. On activity, positive = re-replication: % of control where 0% means no effect.
Conditions: MCF 10A DNA re-replication, Hoechst nuclear intensity, 48 h; activity, positive = re-replication: at 46.1 µM (top of the series)
Potency means the concentration at half of the fitted maximal effect; tags describe the fitted curve by direction and shape.

**Q.** With CCn1c(=NC(=O)CS(=O)(=O)c2ccc(F)cc2)sc2cccc(OC)c21 as the compound, how does the Potency read?
**A.** inconclusive [activator, full curve, poor fit]

**Q.** With Cc1nn(Cc2ccc(C(=O)N3c4ccc(F)cc4CCC3C)o2)c(C)c1Br (centres undefined) as the compound, how does the Potency read?
**A.** inconclusive [activator, single point]

**Q.** With COc1ccc(C(=O)/C=C/c2ccc(O)cc2)c(O)c1C/C=C(\C)CCC=C(C)C as the compound, how does the “activity, positive = re-replication” value read?
**A.** inactive: 14%

**Q.** Which Potency does the source give for CCOC(=O)Nc1ccc2c(CN3CCN(S(=O)(=O)c4ccc(C(C)C)cc4)CC3)cc(=O)oc2c1 here?
**A.** inconclusive [activator, single point]

**Q.** Which “activity, positive = re-replication” value does the source give for C=CC(C)(O)CC/C=C(\C)CCC=C(C)C (centres undefined) here?
**A.** inactive: 12.8%

**Q.** With COc1cccc(CNC(=O)C2CCN(c3nn4c(=O)cc(C)nc4s3)CC2)c1 as the compound, how does the “activity, positive = re-replication” value read?
**A.** inactive: 0.339%

**Q.** Which Potency does the source give for COc1ccc(CNC(=O)COC(=O)CN2C(=O)COc3ccccc32)cc1 here?
**A.** inconclusive [activator, partial curve, poor fit]

**Q.** With COc1ccc(OC)c(NC(=S)NN2CCOCC2)c1 as the compound, how does the “activity, positive = re-replication” value read?
**A.** inactive: 2.46%

**Q.** With COc1ccc(OCC(O)CN2C(=O)c3ccccc3C2=O)cc1 (centres undefined) as the compound, how does the activity, positive = re-replication read?
**A.** inconclusive: 81.7% [activator]

**Q.** For CC1CC(C)CN(c2nc(N(C)c3ccccc3)nc(N)c2[N+](=O)[O-])C1 (centres undefined), which Potency is on record?
**A.** inconclusive [activator, partial curve]

**Q.** For Cc1cccc(Cn2c(CN3CCN(Cc4ccccc4)CC3)nc3c2c(=O)[nH]c(=O)n3C)c1, which “activity, positive = re-replication” value is on record?
**A.** inactive: 6.12%

**Q.** For N#Cc1cnc(SCC(=O)c2ccccc2)nc1N, which Potency is on record?
**A.** inconclusive [activator, single point]

**Q.** Which “activity, positive = re-replication” value does the source give for CNC(=O)C(=O)Nc1cc2c3c(c1)CCN3C(=O)CC2 here?
**A.** inactive: -2.47%

**Q.** Which “activity, positive = re-replication” value does the source give for CCOc1ccc(S(=O)(=O)NCCC(=O)Nc2ccncc2)cc1 here?
**A.** inactive: -0.194%

**Q.** With CCOC(=O)C[C@H]1c2ccccc2S(=O)(=O)N1Cc1cccc(C(F)(F)F)c1 as the compound, how does the Potency read?
**A.** inconclusive [activator, single point]

**Q.** For O=C(CSc1nncn1-c1ccccc1F)NC1CCCCC1, which “activity, positive = re-replication” value is on record?
**A.** inactive: -1.93%

**Q.** Which Potency does the source give for Cn1cc(CN2CCCC(C(=O)Nc3cccc(-c4cc5ccccc5[nH]4)c3)C2)cn1 (centres undefined) here?
**A.** inconclusive [activator, single point]

**Q.** Which “activity, positive = re-replication” value does the source give for CN(C)c1ccc(NC(=O)CCN2C(=O)c3cccc([N+](=O)[O-])c3C2=O)cc1 here?
**A.** inactive: 0.565%

**Q.** With CCOC(=O)C1=C(C)N(c2ccc(OCC)cc2)C(=O)/C1=C\c1ccco1 as the compound, how does the Potency read?
**A.** active: 16.4 µM

**Q.** With CCOCCOC(=O)c1[nH]c2c(c1C)C(=O)CC(c1ccccc1)C2 (centres undefined) as the compound, how does the Potency read?
**A.** inconclusive [activator, full curve, poor fit]

**Q.** For O=C(NC1CCN(c2ncccn2)CC1)c1ccccc1F, which “activity, positive = re-replication” value is on record?
**A.** inactive: 3%

**Q.** Which Potency does the source give for O=C(Nc1cccnc1)C(Cc1ccccc1)n1cccc1 (centres undefined) here?
**A.** inconclusive [activator, single point]

**Q.** For O=C(NC(=S)Nc1ccc(N2CCOCC2)cc1)c1cccc(Cl)c1, which Potency is on record?
**A.** inconclusive [activator, partial curve, poor fit]

**Q.** Which Potency does the source give for O=Cc1s/c(=N\S(=O)(=O)c2ccccc2)n(CCCCl)c1Cl here?
**A.** inconclusive [activator, partial curve, poor fit]

**Q.** With COCCCNC(=O)/C(C#N)=C/c1c(N2CCN(C)CC2)nc2c(C)cccn2c1=O as the compound, how does the Potency read?
**A.** inconclusive [activator, single point]

**Q.** For COc1ccc(CCNc2nc3c(c(=O)n(C)c(=O)n3C)n2C)cc1OC, which “activity, positive = re-replication” value is on record?
**A.** inactive: 6.21%

**Q.** With Oc1ccc(Cc2ccccc2)c2cccnc12 as the compound, how does the Potency read?
**A.** inconclusive [activator, single point]

**Q.** For COc1cccc(CN(C)CC(=O)Nc2cccc(C(F)(F)F)c2)c1OC, which “activity, positive = re-replication” value is on record?
**A.** inactive: 3.79%

**Q.** With COc1ccc(Br)cc1/C=N/NC(=O)c1cc(OC)c(OC)c(OC)c1 as the compound, how does the Potency read?
**A.** inconclusive [activator, single point]

**Q.** For O=[N+]([O-])c1ccc(N=Cc2c(O)ccc3ccccc23)cc1, which Potency is on record?
**A.** inconclusive [activator, single point]

**Q.** With O=c1[nH]c2ccc(Cl)cc2c(-c2ccccc2)c1[N+](=O)[O-] as the compound, how does the Potency read?
**A.** inconclusive [activator, single point]

**Q.** With OCCC1CN(Cc2ccc(F)cc2Cl)CCN1CCc1ccccc1 (centres undefined) as the compound, how does the Potency read?
**A.** inconclusive [activator, single point]

**Q.** Which Potency does the source give for COc1ccccc1-n1cn[nH]c1=S here?
**A.** inconclusive [activator, single point]

**Q.** With CN(C)N=Nc1nc2c(c(=O)n(C)c(=O)n2C)n1CC1CO1 (centres undefined) as the compound, how does the Potency read?
**A.** active: 16.4 µM

**Q.** With Cn1cccc1/C=N\NC(=O)C1COc2ccc(C(C)(C)C)cc2O1 (centres undefined) as the compound, how does the “activity, positive = re-replication” value read?
**A.** inactive: -6.65%

**Q.** For O=C(CCNS(=O)(=O)c1cccs1)N1CCN(c2cccc(Cl)c2)CC1, which “activity, positive = re-replication” value is on record?
**A.** inactive: 27.2%

**Q.** For CCOC(=O)N(C)S(=O)(=O)c1ccccc1[N+](=O)[O-], which “activity, positive = re-replication” value is on record?
**A.** inactive: 4.03%

**Q.** Which “activity, positive = re-replication” value does the source give for Cc1ccc(NC(=O)CCCCCN2C(=O)[C@@H]3Cc4ccccc4CN3C2=O)c(Cl)c1 here?
**A.** inactive: -2.36%

**Q.** Which Potency does the source give for COCC(C)n1c(C)cc(C(=O)COC(=O)c2c(C)nn(-c3ccccc3)c2C)c1C (centres undefined) here?
**A.** inconclusive [activator, partial curve, poor fit]

**Q.** With Cc1c(Cl)cccc1NC(=S)NCC1COc2ccccc2O1 (centres undefined) as the compound, how does the Potency read?
**A.** inconclusive [activator, partial curve, poor fit]

**Q.** Which Potency does the source give for O=C(O)c1ccc(N/N=C/c2ccc(-c3ccc(Br)cc3)o2)cc1 here?
**A.** inconclusive [activator, partial curve, poor fit]

**Q.** Which “activity, positive = re-replication” value does the source give for CC(C)Cc1cc(C(=O)Nc2sc3c(c2C#N)CCCC3)no1 here?
**A.** inactive: 19.4%

**Q.** With O=C(NCCCN1CCOCC1)c1cc2c(s1)-c1ccccc1OC2 as the compound, how does the Potency read?
**A.** inconclusive [activator, single point]

**Q.** Which Potency does the source give for CCCN1C(=O)C2(C(C(=O)c3ccc(C)o3)=C(O)C(=O)N2CCCN2CCOCC2)c2ccccc21 (centres undefined) here?
**A.** inconclusive [activator, partial curve, poor fit]

**Q.** For CCc1nc(SCc2ccc(Cl)cc2)n[nH]1, which “activity, positive = re-replication” value is on record?
**A.** inactive: -10.1%

**Q.** Which Potency does the source give for COc1ccccc1N(C(=O)c1snc(C(N)=O)c1N)C(C(=O)NC1CCCCC1)c1cccc(OC)c1OC (centres undefined) here?
**A.** inconclusive [activator, partial curve, poor fit]

**Q.** Which “activity, positive = re-replication” value does the source give for COc1ccccc1N1C(=O)c2ccc(C(=O)Nc3ccc(C(=O)O)cc3)cc2C1=O here?
**A.** inactive: -1.44%

**Q.** For CC1(C)COC(/C=C/c2ccc([N+](=O)[O-])cc2)=N1, which Potency is on record?
**A.** active: 16.4 µM

**Q.** With C(=N\n1cnnc1)/c1ccc(OC2CSC2)cc1 as the compound, how does the Potency read?
**A.** inconclusive [activator, partial curve, poor fit]

**Q.** For CC(C)c1ccc(CCNC(=O)c2cccc(S(=O)(=O)N3CCN(C)CC3)c2)cc1, which Potency is on record?
**A.** inconclusive [activator, single point]

**Q.** Which “activity, positive = re-replication” value does the source give for COc1c(C)cc(C(=O)C2CCCN(Cc3cnc(N4CCOCC4)s3)C2)cc1C (centres undefined) here?
**A.** inactive: -1.34%

**Q.** Which Potency does the source give for Cc1nc(Br)c(Br)c(C)c1Br here?
**A.** inconclusive [activator, partial curve, poor fit]

**Q.** With Cc1noc(C)c1C(=O)Nc1ccc(-n2ccc(C(F)(F)F)n2)cc1 as the compound, how does the “activity, positive = re-replication” value read?
**A.** inactive: 10.2%

**Q.** Which Potency does the source give for COc1cccc(-c2cc(C(F)(F)F)n3ncc(S(=O)(=O)c4ccccc4)c3n2)c1 here?
**A.** active: 7.31 µM

**Q.** For COc1ccc(S(=O)(=O)N2CCCCCC2)cc1C(=O)NCCOc1ccc(C)cc1, which “activity, positive = re-replication” value is on record?
**A.** inactive: 25.7%

**Q.** With Cc1ccc(-c2ccnc(-c3ccc(O)cc3)n2)cc1 as the compound, how does the “activity, positive = re-replication” value read?
**A.** inactive: -1.38%

**Q.** For N#CC1=C(N)Oc2cc(Nc3ccccc3)ccc2C1c1ccncc1 (centres undefined), which Potency is on record?
**A.** inconclusive [activator, single point]

**Q.** For O=C(CCNS(=O)(=O)c1ccc(Br)cc1)NCc1ccco1, which “activity, positive = re-replication” value is on record?
**A.** inactive: 4.01%

**Q.** Which “activity, positive = re-replication” value does the source give for CN(Cc1ccccc1)C(=O)c1[nH]cnc1C(=O)N[C@@H](Cc1ccccc1)C(=O)OC(C)(C)C here?
**A.** inactive: 9.05%

**Q.** With O=S(=O)(NCc1ccc2c(c1)OCO2)c1ccc(Cl)s1 as the compound, how does the Potency read?
**A.** inconclusive [activator, partial curve, poor fit]

**Q.** Which “activity, positive = re-replication” value does the source give for COc1ccc(NC(=O)C(=O)NCCC2CCCCN2S(=O)(=O)c2ccc(F)cc2)cc1 (centres undefined) here?
**A.** inactive: 50.2%

**Q.** For COc1cc2c(cc1OC)CN(c1ccc3ccccc3n1)CC2, which Potency is on record?
**A.** inconclusive [activator, single point]

**Q.** Which “activity, positive = re-replication” value does the source give for COc1cc(NC(=S)Nc2cccc(Cl)c2Cl)c(OC)cc1Cl here?
**A.** inactive: 8.41%

**Q.** Which Potency does the source give for O=C(CN(CC1CCCO1)C(=O)CNS(=O)(=O)c1ccccc1)NCCc1ccccc1 (centres undefined) here?
**A.** inconclusive [activator, partial curve]

**Q.** With Cc1nc(-c2ccccc2)sc1C1(C)CC(c2cccc(F)c2)=NO1 (centres undefined) as the compound, how does the “activity, positive = re-replication” value read?
**A.** inactive: 2.45%

**Q.** Which Potency does the source give for Cc1ccc(/C=N/n2c(-c3cccs3)n[nH]c2=S)cc1 here?
**A.** inconclusive [activator, full curve, poor fit]

**Q.** With COc1ccc(NC(=O)Nc2ccccc2)cc1S(=O)(=O)N1CCCCC1 as the compound, how does the Potency read?
**A.** inconclusive [activator, partial curve, poor fit]

**Q.** Which “activity, positive = re-replication” value does the source give for O=C(c1n[nH]c2ccccc12)N1CCN(c2ccc(F)cc2)CC1 here?
**A.** inactive: 2.28%

**Q.** Which Potency does the source give for CCCCCCC(=O)N(O)C1CC(=O)N(c2ccc(Br)cc2)C1=O (centres undefined) here?
**A.** inconclusive [activator, single point]

**Q.** With COC(=O)c1ccc(CSc2nnc(-c3ccncc3)n2Cc2ccccc2)o1 as the compound, how does the Potency read?
**A.** inconclusive [activator, single point]

**Q.** For COc1ccc(-c2nc3ccccc3c(=O)n2CCOc2ccc(C)cc2C)cc1, which “activity, positive = re-replication” value is on record?
**A.** inactive: 0.932%

**Q.** For CCCC(=O)Nc1cc(C)c(NC(=O)c2ccco2)cn1, which Potency is on record?
**A.** inconclusive [activator, single point]

**Q.** With CCOc1cc(C(=O)Nc2cnccn2)cc(OCC)c1OCC as the compound, how does the Potency read?
**A.** inconclusive [activator, single point]

**Q.** With Cc1cc(C)c(CN2CCC(n3nccc3NC(=O)CCOc3ccccc3)CC2)cc1C as the compound, how does the “activity, positive = re-replication” value read?
**A.** inactive: 13.9%
